Reference: the RNAGym collection of RNA variant scans (doi:10.1101/gad.245936.114)
Variants at the floor of the assay are shown more often than the library holds them.

B1: tRNA (parent)
chain: CUCUCGGUAGCCAAGUUGGUUUAAGGCGCAAGACUUUAAUUUAUCACUACGAAAUCUUGAGAUCGGGCGUUCGACUCGCCCCCGGGAGAUUUUUUCCUCGAGCAA

Variants of: B1
Assay: nonsense suppression (GFP-seq) (ratio to wild type); higher = more function; SUP4oc tRNA, yeast GFP reporter sort-seq
In short: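 Nonsense suppression (GFPSEQ) is the median GFP/RFP ratio of each sorting bin, weighted by the variant's estimated share of cells in that bin and expressed relative to the unmutated parent tRNA. Yeast strains carried genome-integrated variants of an ochre-suppressor tRNA from a library with ~3% random mutations, plus a galactose-driven GFP ochre reporter and RFP, and were grown in raffinose/galactose medium containing 80 mg/L adenine. Cells were sorted into GFP/RFP bins, each bin was Illumina-sequenced (phred ≥30), and variants were kept only with ≥100 reads and ≥30 cells.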

**Q.** With A13C U76C G78C as the variant, how does the nonsense suppression read?
**A.** ≤ 0.026

**Q.** With C12U U63A as the variant, how does the nonsense suppression read?
**A.** 0.697

**Q.** With C12A G28U C81U as the variant, how does the nonsense suppression read?
**A.** ≤ 0.026

**Q.** For A13G A24U C56U A60U, which nonsense suppression is on record?
**A.** ≤ 0.026

**Q.** With C12G A14C A31G C75G as the variant, how does the nonsense suppression read?
**A.** ≤ 0.026

**Q.** For C12G A23U A62U G66C, which nonsense suppression is on record?
**A.** ≤ 0.026

**Q.** For A13C A60C, which nonsense suppression is on record?
**A.** 0.29

**Q.** With A13C A60G as the variant, how does the nonsense suppression read?
**A.** 0.392

**Q.** With A13G A30C G78U as the variant, how does the nonsense suppression read?
**A.** ≤ 0.026

**Q.** With C12A G78U as the variant, how does the nonsense suppression read?
**A.** ≤ 0.026

**Q.** Which nonsense suppression does the source give for C12A G78A here?
**A.** 0.045

**Q.** With A13C C77U as the variant, how does the nonsense suppression read?
**A.** 0.0493

**Q.** Which nonsense suppression does the source give for C12U G19A G26C U57G here?
**A.** ≤ 0.026

**Q.** With C12G A23C U57A G66C as the variant, how does the nonsense suppression read?
**A.** ≤ 0.026

**Q.** For C12U A13U C80U C83U, which nonsense suppression is on record?
**A.** ≤ 0.026

**Q.** With C12A U16G C27G C29A G32C as the variant, how does the nonsense suppression read?
**A.** ≤ 0.026

**Q.** With C12U C64A G73A as the variant, how does the nonsense suppression read?
**A.** ≤ 0.026

**Q.** Which nonsense suppression does the source give for C12A G26A A87C here?
**A.** ≤ 0.026

**Q.** Which nonsense suppression does the source give for C12U C80G here?
**A.** ≤ 0.026

**Q.** With C12G U22C U35G as the variant, how does the nonsense suppression read?
**A.** ≤ 0.026

**Q.** Which nonsense suppression does the source give for C12U G28U U76C here?
**A.** ≤ 0.026

**Q.** With C12U A24C G26U A74C U76C as the variant, how does the nonsense suppression read?
**A.** ≤ 0.026

**Q.** Which nonsense suppression does the source give for C12A U21A here?
**A.** ≤ 0.026

**Q.** For A13C G18A A54C U63A A74C G88A, which nonsense suppression is on record?
**A.** ≤ 0.026

**Q.** For C12G U57G G86A, which nonsense suppression is on record?
**A.** ≤ 0.026

**Q.** For C12G C83U, which nonsense suppression is on record?
**A.** ≤ 0.026

**Q.** Which nonsense suppression does the source give for C12U A14U U63C here?
**A.** ≤ 0.026

**Q.** Which nonsense suppression does the source give for C12U C27A G88C here?
**A.** ≤ 0.026

**Q.** With C12G A33U U55C C72A G73A U76C as the variant, how does the nonsense suppression read?
**A.** ≤ 0.026

**Q.** For C12G U17G U70A, which nonsense suppression is on record?
**A.** ≤ 0.026

**Q.** For C12A A24U G88A, which nonsense suppression is on record?
**A.** ≤ 0.026

**Q.** Which nonsense suppression does the source give for C12G U16G A33U C34G here?
**A.** ≤ 0.026

**Q.** With C12U U71C U76G G86U as the variant, how does the nonsense suppression read?
**A.** ≤ 0.026

**Q.** For C12G G67C G69U, which nonsense suppression is on record?
**A.** ≤ 0.026

**Q.** For C12U A30G, which nonsense suppression is on record?
**A.** 0.363

**Q.** Which nonsense suppression does the source give for C12A A31U U63A A74U here?
**A.** ≤ 0.026

**Q.** Which nonsense suppression does the source give for C12G G67A A74C G88A here?
**A.** ≤ 0.026

**Q.** With C12A G25C A87U as the variant, how does the nonsense suppression read?
**A.** ≤ 0.026

**Q.** Which nonsense suppression does the source give for C12G G32U U55A here?
**A.** ≤ 0.026

**Q.** For A13C A23U G69A, which nonsense suppression is on record?
**A.** ≤ 0.026

**Q.** Which nonsense suppression does the source give for A13C A23U C72G here?
**A.** ≤ 0.026

**Q.** Which nonsense suppression does the source give for C12U C34U U70A G73U C81G G84U here?
**A.** ≤ 0.026

**Q.** Which nonsense suppression does the source give for C12G C29U C64G here?
**A.** ≤ 0.026

**Q.** For C12A U57A G65A A89U, which nonsense suppression is on record?
**A.** ≤ 0.026

**Q.** For C12U U17C, which nonsense suppression is on record?
**A.** 0.212

**Q.** For C12A C34G, which nonsense suppression is on record?
**A.** ≤ 0.026

**Q.** With C12G U20A G67C A74C as the variant, how does the nonsense suppression read?
**A.** ≤ 0.026

**Q.** For C12U A13G, which nonsense suppression is on record?
**A.** 0.153

**Q.** With C12A G18C A54C G73C as the variant, how does the nonsense suppression read?
**A.** ≤ 0.026

**Q.** With C12G C34A G86C as the variant, how does the nonsense suppression read?
**A.** ≤ 0.026

**Q.** For A13C U57C, which nonsense suppression is on record?
**A.** 0.0326

**Q.** For A13C U21G A89U, which nonsense suppression is on record?
**A.** ≤ 0.026

**Q.** Which nonsense suppression does the source give for C12G U55C G59U here?
**A.** ≤ 0.026

**Q.** For C12U A31G C77G, which nonsense suppression is on record?
**A.** ≤ 0.026

**Q.** With C12A C34A A60C C79A as the variant, how does the nonsense suppression read?
**A.** ≤ 0.026

**Q.** For C12G C34A G88C, which nonsense suppression is on record?
**A.** ≤ 0.026

**Q.** Which nonsense suppression does the source give for A13C C34G G59U C77G here?
**A.** ≤ 0.026

**Q.** For C12A U57C G67C C72A, which nonsense suppression is on record?
**A.** ≤ 0.026

**Q.** Which nonsense suppression does the source give for C12U G25A G61C here?
**A.** 0.823

**Q.** With C12A U70A A74U C83A as the variant, how does the nonsense suppression read?
**A.** ≤ 0.026

**Q.** With C12U U63A C81A as the variant, how does the nonsense suppression read?
**A.** ≤ 0.026

**Q.** For C12A G18U G66A U70C C77G C83U, which nonsense suppression is on record?
**A.** ≤ 0.026

**Q.** Which nonsense suppression does the source give for C12U G19A A30C G69A here?
**A.** ≤ 0.026

**Q.** With C12G A30G C82G as the variant, how does the nonsense suppression read?
**A.** ≤ 0.026

**Q.** Which nonsense suppression does the source give for A13C G69A here?
**A.** ≤ 0.026

**Q.** For C12A A31G A33G U57A A87G, which nonsense suppression is on record?
**A.** ≤ 0.026

**Q.** With C12G U55A C56A as the variant, how does the nonsense suppression read?
**A.** ≤ 0.026

**Q.** For C12A C81A, which nonsense suppression is on record?
**A.** ≤ 0.026

**Q.** With C12G A14C A23U G69A G78A as the variant, how does the nonsense suppression read?
**A.** ≤ 0.026

**Q.** With C12A U21G A33G U63C as the variant, how does the nonsense suppression read?
**A.** ≤ 0.026

**Q.** With C12A G25A G28U G85A as the variant, how does the nonsense suppression read?
**A.** ≤ 0.026

**Q.** With C12A U55A as the variant, how does the nonsense suppression read?
**A.** ≤ 0.026

**Q.** Which nonsense suppression does the source give for C12A G19U U35C here?
**A.** ≤ 0.026

**Q.** For C12A U71A, which nonsense suppression is on record?
**A.** ≤ 0.026

**Q.** Which nonsense suppression does the source give for C12U A74C here?
**A.** ≤ 0.026

**Q.** For C12U A74U, which nonsense suppression is on record?
**A.** ≤ 0.026

**Q.** For C12A G18U U70C G88U, which nonsense suppression is on record?
**A.** ≤ 0.026

**Q.** With C12A C77A as the variant, how does the nonsense suppression read?
**A.** ≤ 0.026

**Q.** Which nonsense suppression does the source give for C12G G88U here?
**A.** ≤ 0.026

**Q.** For A13C A62U G86A, which nonsense suppression is on record?
**A.** ≤ 0.026

**Q.** Which nonsense suppression does the source give for C12U U16A A33G G88A here?
**A.** ≤ 0.026

**Q.** With A13C G73U as the variant, how does the nonsense suppression read?
**A.** 0.0412

**Q.** With C12U G73C as the variant, how does the nonsense suppression read?
**A.** ≤ 0.026

**Q.** Which nonsense suppression does the source give for A13C A23C A30U C34U G67C here?
**A.** ≤ 0.026
